Among all 45,000 compounds or so, about 200 (0.44%) were called active. Another 7% or so got no clear call; they are omitted. The call rests on the fitted dose curve; in most records, active means well fitted activation curve with a large enough effect; inconclusive means small, poorly fitted or top-dose-only effect; inactive means no such curve, though single readings can be large or run the other way. This is one part of the list.
Test: qHTS of TDP-43 Inhibitors: NCGC Sytravon Library Screen; further: 0% is about no effect; nearly all actives have a fitted effect of over 55% in size
Conditions: yeast TDP-43 toxicity rescue, BacTiter-Glo growth, 24 h; series mostly up to 46.1 µM; growth rescue (activation): at the top concentration
In short: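 TDP-43-expressing yeast, pregrown in raffinose, seeded at OD600 0.02 in galactose medium with compound for 24 hr at 30 deg C. Growth read by BacTiter-Glo luminescence, so rescue of toxicity appears as activation.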

| Compound | growth rescue (activation) | Potency |
| --- | --- | --- |
| CC1CCN(c2ccc([N+](=O)[O-])cc2C(=O)NCC2CCCO2)CC1 (stereo unspecified) | inactive: 18.4% | – |
| CCOC(=O)CSc1nc(C)c(Oc2ccc(Cl)cc2Cl)c(=O)[nH]1 | inactive: -41.3% | – |
| C=CCN1C(=O)/C(=C\C=C2\N(C)c3ccccc3C2(C)C)SC1=S | inactive: -1.85% | – |
| CCn1c(CNC(=O)c2ccccc2F)nnc1SCC(=O)Nc1nncs1 | inactive: -6.62% | – |
| COc1cc(-c2cc3nc(NCCc4ccncc4)ccn3n2)cc(OC)c1OC | inactive: 1.21% | – |
| COc1ccc(C)cc1NC(=O)CN(C)C1CCCCC1 | inactive: 1.82% | – |
| NC(=O)c1ccc2nc(NC(=O)c3ccc(N)cc3)sc2c1 | inactive: 1.11% | – |
| COc1ccccc1-c1c(C(F)(F)F)oc2cc(OCC(=O)Nc3ccccc3C(F)(F)F)ccc2c1=O | inactive: 18.4% | – |
| COc1ccccc1/C=C/C(=O)NCC(=O)n1nc(C)cc1C | inactive: -4% | – |
| O=C(NN1C(=O)C2C3c4ccccc4C(c4ccccc43)C2C1=O)c1ccccc1 (stereo unspecified) | inactive: 5.27% | – |
| O=C(NC(=S)Nc1ccc(CN2CCOCC2)cc1)c1ccc(-c2ccc(Br)cc2)o1 | inactive: 10.3% | – |
| Cc1ccsc1C1C(C#N)=C(N)N(N(C)C)C2=C1C(=O)CC(C)(C)C2 (stereo unspecified) | inactive: 10.2% | – |
| COc1ccc(/C=C(/NC(=O)c2ccccc2)C(=O)N2CCCC2)cc1 | inactive: 0.125% | – |
| N#Cc1ccc(OCC(=O)OCC(=O)Nc2cc(C(F)(F)F)ccc2N2CCOCC2)cc1 | inactive: 14.5% | – |
| CC1CCCC(NC(=O)C2N(CCCN3CCCC3)C(=O)C3C(C(=O)Nc4cccc(Cl)c4)C4C=CC32O4)C1C (stereo unspecified) | inactive: 5.91% | – |
| CCNC(=O)C1(C)CCCN(Cc2cc(-c3ccccc3)n(C)n2)C1 (stereo unspecified) | inactive: 10.3% | – |
| CCN(CC)c1ccc(NC(=S)NC(=O)Cc2ccccc2)cc1 | inactive: -6.94% | – |
| O=C(NCC(=O)N(c1cccnc1)C(C(=O)NC1CCCCC1)c1ccccc1)c1ccco1 (stereo unspecified) | inactive: 13% | – |
| COc1cccc(CNCC(=O)NC(=O)NC2CCCC2)c1 | inactive: -8.73% | – |
| Nc1nc(SCC(=O)N2N=C3/C(=C\c4ccco4)CCCC3C2c2ccco2)n[nH]1 (stereo unspecified) | inactive: 12.2% | – |
| O=S(=O)(c1cccs1)N1CCN(c2ccccc2F)CC1 | inactive: 16.9% | – |
| COc1ccc(/C=C/C2=NN(Cc3ccccc3)C(=O)CC2)cc1 | inactive: 6.07% | – |

| Compound | growth rescue (activation) | Potency |
| --- | --- | --- |
| C/C(=N\NC(=O)Cn1ccc(C(F)(F)F)n1)c1ccc(N2CCOCC2)cc1 | inactive: 34.6% | – |
| Cc1ccc(NC(=O)c2ccc(Oc3ncccn3)cc2)cc1 | inactive: 15.3% | – |
| O=C(CNc1cc(S(=O)(=O)N2CCOCC2)ccc1N1CCOCC1)Nc1cccc(C(F)(F)F)c1 | inactive: 0.031% | – |
| Cc1ccc(C(=O)NCCCNC(=O)COc2ccccc2Cl)cn1 | inactive: 8.01% | – |
| Cc1ccc(S(=O)(=O)N2CCN(C(=O)CN(Cc3ccco3)Cc3cccs3)CC2)cc1 | inactive: -5.37% | – |
| CCCC(=O)NC(c1ccc(N(C)C)cc1)c1ccc2cccnc2c1O (stereo unspecified) | inactive: -0.524% | – |
| COc1cc(C2NC(=S)NC3=C2C(=O)CCC3)ccc1O (stereo unspecified) | inactive: 3.86% | – |
| COc1cccc(C(=O)/C=C/Nc2ccc(S(=O)(=O)Nc3onc(C)c3C)cc2)c1 | inactive: -3.06% | – |
| CN(C)CCCOC(=O)c1sc2ccccc2c1Cl | inactive: 1.99% | – |
| CCCCOP(=O)(OCCCC)C(Nc1ccc(C(=O)OCC)cc1)c1ccncc1 (stereo unspecified) | inactive: 5.24% | – |
| COc1cccc(C(=O)N2CCC(C(=O)NCc3ccc(C)cc3)CC2)c1 | inactive: -5.21% | – |
| COc1cccc2c1Oc1cc([N+](=O)[O-])cc(N(C)C(C)=O)c1C=C2 | inactive: 6.02% | – |
| COc1ccc(C)cc1NC(=O)N1CCCc2ccccc21 | inactive: -1.73% | – |
| O=C(Cn1cncn1)N/N=C/c1ccccc1O | inactive: 28.2% | – |
| NS(=O)(=O)c1cccc(NC(=O)CSc2nnc(C3CC3)n2Cc2ccccc2)c1 | inactive: -4.8% | – |
| CCOc1ccc2cc(S(=O)(=O)N3CCCCC3)ccc2c1 | inactive: 2.53% | – |
| O=C(Cc1ccc(Br)cc1)N1CCN(C(=O)c2ccco2)CC1 | inactive: 7.24% | – |
| COC(=O)N1CCCCC1c1cc(C(=O)NCc2cccnc2)no1 (stereo unspecified) | inactive: -3.03% | – |
| COc1ccc(S(=O)(=O)N2CCOCC2)cc1NC(=O)Cc1coc2cc(C)ccc12 | inactive: 13.8% | – |
| O=C(NCCC1=CCCCC1)c1ccc2c(c1)N(Cc1ccccc1)C(=O)c1ccccc1S2(=O)=O | inactive: 10.2% | – |
| CC(=O)CCc1ccc(OCC(=O)Nc2cccc(S(=O)(=O)N(C)c3ccccc3)c2)cc1 | inactive: -1.78% | – |
| Cc1cc(C)cc(NC(=O)CCCN2C(=O)COc3ccc(C)cc32)c1 | inactive: 20.3% | – |

| Compound | growth rescue (activation) | Potency |
| --- | --- | --- |
| COc1cccc(C2C(C(=O)c3ccco3)=C(O)C(=O)N2CCCN2CCOCC2)c1OC (stereo unspecified) | inactive: -25.2% | – |
| CCOC(=O)N1CCN(C(=O)c2ccc(C)c(S(=O)(=O)N3CCCCC3)c2)CC1 | inactive: 11.9% | – |
| Cc1ccc(N(CC(=O)NCC2CCCO2)C(=O)CCC(=O)Nc2nccs2)cc1 (stereo unspecified) | inactive: 24.2% | – |
| Cc1ccc(OCCSc2nc3ccccc3n2CC(=O)O)c(C(C)C)c1 | inactive: 2.9% | – |
| CC1/C(=N/O)CC(c2ccco2)NC1c1ccco1 (stereo unspecified) | inactive: 15% | – |
| Cc1cc(=O)[nH]c(/N=C(\N)Nc2ccc3c(c2)OCCO3)n1 | inactive: 12.4% | – |
| O=C(Nc1ccc(F)c(Cl)c1)C1CC(=O)n2c(nc3ccccc32)N1 (stereo unspecified) | inactive: -3.37% | – |
| O=[N+]([O-])c1ccc(N2CCN(S(=O)(=O)c3ccccc3)CC2)cc1NCC1CCCO1 (stereo unspecified) | inactive: -10.1% | – |
| COc1cc(NC(=O)c2ccccc2)c(OC)cc1NC(=O)Cc1cccs1 | inactive: -7.11% | – |
| O=C(OCc1cc([N+](=O)[O-])cc2c1OCOC2)c1cccnc1SC(F)F | inactive: 19.8% | – |
| CCc1ccc(C(O)c2ncc(-c3ccccc3C)[nH]2)cc1 (stereo unspecified) | inactive: 3.19% | – |
| C/C(N)=C(/C#N)C(=O)COC(=O)c1cc(-c2ccc(Br)cc2)nc2ccccc12 | – | inactive |
| CCCCOP(=O)(c1ccc(N(C)C)cc1)C(O)c1ccc(OC)c(OC)c1 (stereo unspecified) | inactive: 17.2% | – |
| CCCn1c(N)c(C(=O)CSc2nc(C3CC3)n(-c3ccccc3)n2)c(=O)[nH]c1=O | inactive: 10.3% | – |
| COc1ccc2[nH]c(=O)c(CNc3cc(C)ccc3C)cc2c1 | inactive: -8.44% | – |
| Cc1cccc(C(=O)OCC(=O)N2CCCCCC2)c1C | inactive: -11% | – |
| Cc1cc(Cl)ccc1C(O)c1ncc(-c2ccccc2C(F)(F)F)[nH]1 (stereo unspecified) | inactive: 12.1% | – |
| CC(Sc1nnc(COc2ccccc2)n1Cc1ccccc1)C(=O)O (stereo unspecified) | inactive: 9.82% | – |
| NC(=O)c1ccccc1OCC(=O)O | inactive: 1.22% | – |
| COc1ccc(N2CCN(C(=O)COCC(=O)O)CC2)cc1 | inactive: 0.298% | – |
| COc1ccc(OC)c(Cc2nnc(CCC(=O)N3CCC(N4CCCCC4)CC3)o2)c1 | inactive: -1.66% | – |
| CCCCNS(=O)(=O)c1ccc(NC(=O)Cc2ccc(OC)cc2)cc1 | inactive: 4.59% | – |

| Compound | growth rescue (activation) | Potency |
| --- | --- | --- |
| CNC(=O)Nc1ccccc1C(=O)Nc1ccccc1 | inactive: -18.2% | – |
| Clc1ccc(SCCn2ccnc2)cc1 | inactive: -21.5% | – |
| COc1ccc(CC(=O)N2CCC(c3ccccc3)C2)cc1 (stereo unspecified) | inactive: 28.5% | – |
| CCCn1c2c(c(O)c(C(=O)Nc3ccc(OC)cc3)c1=O)CCCC2 | inactive: 5.21% | – |
| OCCNc1ncnc2c1ncn2[C@H]1CN(Cc2cccs2)C[C@@H](CO)O1 | inactive: -0.183% | – |
| CCNC(=O)NC(=O)COC(=O)CCCSc1nc2ccccc2[nH]1 | inactive: 24.5% | – |
| COc1ccccc1NC(=O)COC(=O)C12CC3CC(CC(Cl)(C3)C1)C2 | inactive: 19.5% | – |
| CC(C)CNc1ncnc2c1ncn2[C@H]1CN(Cc2ccco2)C[C@@H](CO)O1 | inactive: -12% | – |
| Cc1cc(N2CCCCC2C)nc(-c2ccccc2O)n1 (stereo unspecified) | inactive: 1.02% | – |
| Cc1ccc(S(=O)(=O)N2CCOCC2)cc1C(=O)N1CC(C)CC(C)C1 (stereo unspecified) | inactive: -6.89% | – |
| CCCNC(=O)C1(C)CCCN(C(=O)C(c2ccccc2)c2ccccc2)C1 (stereo unspecified) | inactive: 8.64% | – |
| CCCCC(=O)N1CC(=O)Nc2ccc(F)cc2C1c1ccccc1 (stereo unspecified) | inactive: 5.75% | – |
| CNc1nc(Oc2ccc3sc(C)nc3c2)c2sccc2n1 | inactive: 18.3% | – |
| CC(=O)N1CCOCC1c1cc(C(=O)Nc2ccccc2)no1 (stereo unspecified) | inactive: 7.83% | – |
| CC(C)CC(=O)NC(=S)Nc1nc(-c2ccccc2)cs1 | inactive: 19.3% | – |
| CCN(CC)CCCC1(CN)OCCc2ccccc21 (stereo unspecified) | inactive: 15.4% | – |
| CC(=O)NCCNc1nc2cc(-c3ccc(C)cc3)sc2c(=O)n1C | inactive: -3.79% | – |
| COc1ccccc1N1CCN(/N=C/C=C/c2ccccc2[N+](=O)[O-])CC1 | inactive: 32% | – |
| CCOC(=O)c1[nH]c2ccc(OCC)cc2c1CCCN1C(=O)c2ccccc2C1=O | inactive: 15.4% | – |
| Cc1ccc(NC(=S)N2CCN(C(=O)C3CCCO3)CC2)cc1 (stereo unspecified) | inactive: -12% | – |
| O=C(NCc1ccccn1)C(=O)NCc1ccccn1 | inactive: 4.43% | – |
| Cc1sc(NC(=O)c2ccccc2)c(C(=O)c2ccccc2)c1C | inactive: 28.7% | – |

| Compound | growth rescue (activation) | Potency |
| --- | --- | --- |
| O=C(NC1CCCCC1)C(c1ccncc1)N(C(=O)c1csnn1)c1ccc(F)cc1 (stereo unspecified) | inactive: -14.3% | – |
| O=c1c(C(c2ccc(Br)cc2)c2c(O)nc3n(c2=O)CCCS3)c(O)nc2n1CCCS2 | inactive: -3.29% | – |
| CCCCNC(=O)C1CCCN1S(=O)(=O)c1cccc2nsnc12 (stereo unspecified) | inactive: 26.6% | – |
| O=C(Nn1cnnc1)c1cc(Cl)cc(Cl)c1 | inactive: 7.46% | – |
| CN1CCNC(=O)C1CC(=O)N1CC=C(c2ccc(F)cc2)CC1 (stereo unspecified) | inactive: -1.24% | – |
| Cc1nonc1NC(=O)CSc1nc2ccccc2o1 | inactive: 17% | – |
| CCCSc1cc(=O)n(-c2ccccc2)nc1C(=O)O | inactive: 7.25% | – |
| C=CCN1C(=O)C(C)S/C1=N\S(=O)(=O)c1ccc(Cl)cc1 (stereo unspecified) | inactive: -2.21% | – |
| CCN(CC)C(=O)C(=O)c1cccn1-c1cccc(-n2cccc2C(=O)C(=O)N(CC)CC)c1C#N | inactive: 3.61% | – |
| NC(N)=NS(=O)(=O)c1ccc(N/C=C\C(=O)c2ccncc2)cc1 | inactive: -13.8% | – |
| COc1ccc2nc(SCC(=O)NC3CC3)c(C#N)cc2c1 | inactive: 2.54% | – |
| COCCCC1CCN(C(=O)C2CCC(=O)N(CCc3ccccc3)C2)CC1 (stereo unspecified) | inactive: 17.9% | – |
| CCOCCCN(C(=O)CNC(=O)c1ccco1)C(C(=O)NC1CCCC1)c1cccc(OC)c1 (stereo unspecified) | inactive: 10.2% | – |
| CC(=O)Nc1ccc(S(=O)(=O)N2CCCC(C(=O)N3CCN(c4ccccc4)CC3)C2)cc1 (stereo unspecified) | inactive: 11.2% | – |
| CC(C)C1Oc2ccccc2N(CC(=O)NC2CCCCC2)C1=O (stereo unspecified) | inactive: 16.6% | – |
| C=CCN(c1ccc(Cl)cc1)S(=O)(=O)c1cccc(C(=O)O)c1 | inactive: -2.71% | – |
| O=C(COc1ccccc1C(=O)c1cnn(-c2ccccc2)c1)Nc1ccc2ccccc2c1 | inactive: -0.0509% | – |
| CCCCn1c(=O)[nH]c(=O)c2c1nc(-c1ccc(OCC)cc1)n2CC | inactive: 4.69% | – |

— PubChem BioAssay AID1347073 (National Center for Advancing Translational Sciences (NCATS), 2019)
